The source of these data is paper PMC4336329 (PLoS ONE, 2015).

Screen size: about 310,000 compounds; about 14,000 (4.5%) showed an effect of 50% or more. The effect is printed as a negative number. The list shows a part of the results.
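Also: peak tail current of the secondary pulse compared with the same well before compound.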

This assay deals with human ether-à-go-go-related gene (hERG) potassium channel (human, UniProt Q12809). The assay is described as follows: primary screen, population patch clamp on CHO cells stably expressing hERG.
human ether-à-go-go-related gene (hERG) potassium channel, sequence (Q12809 whole entry, looked up): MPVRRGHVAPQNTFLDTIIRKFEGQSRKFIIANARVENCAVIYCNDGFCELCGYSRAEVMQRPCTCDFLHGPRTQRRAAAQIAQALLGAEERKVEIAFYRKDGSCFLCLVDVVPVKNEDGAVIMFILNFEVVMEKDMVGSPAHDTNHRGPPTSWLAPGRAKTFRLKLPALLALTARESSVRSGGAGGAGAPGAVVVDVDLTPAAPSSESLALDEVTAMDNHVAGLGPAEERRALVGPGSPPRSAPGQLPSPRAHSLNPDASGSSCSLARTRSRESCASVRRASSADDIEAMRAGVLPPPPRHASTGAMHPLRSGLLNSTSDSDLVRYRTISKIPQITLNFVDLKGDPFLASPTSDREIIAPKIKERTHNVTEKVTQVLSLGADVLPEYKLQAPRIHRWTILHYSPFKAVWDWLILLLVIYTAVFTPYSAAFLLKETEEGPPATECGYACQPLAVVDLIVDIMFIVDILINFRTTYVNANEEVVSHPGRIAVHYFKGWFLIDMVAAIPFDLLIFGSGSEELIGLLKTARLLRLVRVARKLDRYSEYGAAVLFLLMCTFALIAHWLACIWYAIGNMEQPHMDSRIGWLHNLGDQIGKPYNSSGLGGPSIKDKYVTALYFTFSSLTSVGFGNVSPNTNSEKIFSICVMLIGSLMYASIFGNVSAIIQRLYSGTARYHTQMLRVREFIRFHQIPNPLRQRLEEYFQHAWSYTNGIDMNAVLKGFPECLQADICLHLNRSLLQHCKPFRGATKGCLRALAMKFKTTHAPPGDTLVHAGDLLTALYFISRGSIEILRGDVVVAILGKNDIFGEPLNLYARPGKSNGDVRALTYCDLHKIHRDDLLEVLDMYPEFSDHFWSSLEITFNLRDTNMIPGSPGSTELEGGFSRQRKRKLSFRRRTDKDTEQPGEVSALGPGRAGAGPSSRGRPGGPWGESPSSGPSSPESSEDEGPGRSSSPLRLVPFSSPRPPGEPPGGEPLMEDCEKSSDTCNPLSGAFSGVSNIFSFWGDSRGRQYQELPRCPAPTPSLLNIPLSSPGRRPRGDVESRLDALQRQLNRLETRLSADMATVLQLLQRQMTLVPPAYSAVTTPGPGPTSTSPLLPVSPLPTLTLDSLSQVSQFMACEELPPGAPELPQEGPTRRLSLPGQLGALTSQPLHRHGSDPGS
For `O=C(COC(=O)c1cccc(Cl)c1Cl)NCCN1C(=O)CSC1=O`, the “hERG current change (%, negative = inhibition) at 10uM” value was -12.4%. In the case of `COC(=O)c1cc(C(=O)N2CCN(c3cccc(C)c3C)CC2)cc([N+](=O)[O-])c1` it was -39.6%; in that of `Cc1cc(C)c(S(=O)(=O)NCc2cn3c(C)csc3n2)cc1C`, -7.39%; in that of `CCOc1ccc(CC(=O)NC2CC(C)(C)N(C)C(C)(C)C2)cc1OCC`, 8.47%. In the case of `COC(=O)c1[nH]c2ccc(C)cc2c1NC(=O)c1ccccc1[N+](=O)[O-]`, the “hERG current change (%, negative = inhibition) at 10uM” value turned out to be 0.122%. `S=C(NCCN1CCCCC1)Nc1ccc(Br)cc1`: the “hERG current change (%, negative = inhibition) at 10uM” value is -69.1%.

As to `COc1cc(C(=O)N/N=C/c2ccc(OC(=O)N3CCOCC3)cc2)cc(OC)c1OC`, the “hERG current change (%, negative = inhibition) at 10uM” value was found to be 14.3%.

Turning to `O=C(NNc1ccc(O)cc1)c1ccc(Br)cc1`, the “hERG current change (%, negative = inhibition) at 10uM” value is listed as -12.2%. Take `CCOC(=O)c1nc(Nc2ccc(C(C)=O)cc2)c2ccccc2n1`: the “hERG current change (%, negative = inhibition) at 10uM” value was -2.37%.

Consider `N#Cc1ccc(CSc2nnc3[nH]c(=O)cc(N)n23)cc1`, for which the “hERG current change (%, negative = inhibition) at 10uM” value is reported as -5.44%. The value for `COc1ccc(/C=N/Nc2nnc(Cc3ccc(OC)c(OC)c3)c(=O)[nH]2)cc1OC` was 18.9%; that for `Cc1nn(-c2ccccc2)cc1C(c1c(N)[nH]c(=S)[nH]c1=O)c1c(N)[nH]c(=S)[nH]c1=O` was 37.5%; that for `NNC(=O)c1cccn(Cc2ccc(Cl)cc2Cl)c1=O` was 4.66%.

On to `CCCCc1c(C)nc2c(OC)cccc2c1SCC(=O)O`, for which the “hERG current change (%, negative = inhibition) at 10uM” value is listed as 12.3%.

Regarding `Cc1ccc(OCc2nnc(SCC(=O)c3cccc([N+](=O)[O-])c3)n2C)cc1`, the “hERG current change (%, negative = inhibition) at 10uM” value is -4.83%.

As to `COc1ccccc1N=c1sc2ccccc2n1C`, the “hERG current change (%, negative = inhibition) at 10uM” value is -17.9%. In the case of `O=C(CN1CCN(c2ccc(C(F)(F)F)cn2)CC1)Nc1ccc2c(c1)OCO2` it was -14%; in that of `COCc1cc(/C=N\NC(=O)COc2ccc(Cl)cc2)ccc1OC`, 17.4%.

With `CN1CCN(c2nnc(-c3cccs3)c3ccccc23)CC1`, the “hERG current change (%, negative = inhibition) at 10uM” value is -53.9%. In the case of `CC(C)c1nnc(NC(=O)C2CCN(S(=O)(=O)c3ccc(-n4cnnn4)cc3)CC2)s1` it was 16.3%; in that of `Cc1ccc(S(=O)(=O)N2CCC(C(N)=O)CC2)c(C)c1C`, -6.06%.

Consider `Cc1ccc2nc(SC(C)C(=O)N3CC(C)OC(C)C3)[nH]c2c1` (stereo not drawn), for which the “hERG current change (%, negative = inhibition) at 10uM” value is recorded as 7.59%.

For `CC(C)(C)n1nc2c(c1NC(=O)c1cc3ccccc3o1)CSC2`, the “hERG current change (%, negative = inhibition) at 10uM” value is -12.9%.

Turning to `Cc1ccc(NC(=O)c2ccc3c(c2)OCO3)cc1Cl`, the “hERG current change (%, negative = inhibition) at 10uM” value is listed as -2.98%. The value for `CCN1CCN(C(=O)CCCn2c(C)c3cnn(-c4ccccc4)c(=O)c3c2C)CC1` was 15.6%; that for `COc1ccc(C(C)=O)cc1COC(=O)c1ccc2c(c1)OCO2` was 22.2%.

Regarding `O=C(c1n[nH]c2ccccc12)N1CCOCC1`, the “hERG current change (%, negative = inhibition) at 10uM” value turned out to be 10.1%. The value for `CC1=C(C(=O)NC2CC(C)(C)Cc3c2cnn3-c2cccc(F)c2)OCCO1` (stereo not drawn) was -43.5%; that for `COc1cc(SC)ccc1C(=O)OCC(=O)NC1CCCC1` was 1.72%.

For `Cc1ccc(N2CCN(S(=O)(=O)c3c(C)nc4scc(C)n4c3=O)CC2)c(C)c1`, the “hERG current change (%, negative = inhibition) at 10uM” value is given as -2.56%. The value for `O=C(Nc1cccc(-n2cnnn2)c1)c1ccc(Cl)cc1Cl` was 4.58%; that for `CCN1C(=O)/C(=C2\Sc3ccccc3N2CC)OC1=S` was 21.1%. In the case of `CN(C)CCCN(C(=O)c1sc2ccccc2c1Cl)c1nc2c(F)cccc2s1.Cl` it was -61.9%. In the case of `O=C(O)CC(SCC(=O)Nc1ccc(S(=O)(=O)N2CCCC2)cc1)C(=O)O` (stereo not drawn) it was 20.4%. For the molecule `O=C(CCCc1c[nH]c2ccccc12)N1CCN(c2ccc(N3CCOCC3)nn2)CC1`, the “hERG current change (%, negative = inhibition) at 10uM” value is -22.2%. In the case of `Cc1cccc(N2CCN(CC(=O)NCc3ccc(Cl)cc3)CC2)c1C` it was -29.2%; in that of `COCCCn1c(SCC(=O)NC(C)C)nnc1-c1ccccc1`, -8.87%. In the case of `Cc1cc(C)c(NC(=O)c2cccc(NC(=O)c3ccco3)c2)c(C)c1` it was -9.17%; in that of `O=C(O)CC1S/C(=N/N=C/c2ccccn2)NC1=O` (stereo not drawn), 14.7%. Consider `O=C(Oc1cccccc1=O)c1ccccc1`, for which the “hERG current change (%, negative = inhibition) at 10uM” value is recorded as -10.2%. The value for `O=C(COc1cc(Cl)ccc1Cl)Nc1nnc(C2CC2)s1` was 14.4%; that for `O=C(O)c1cc(NN=Nc2cccc(S(=O)(=O)O)c2)cc([N+](=O)[O-])c1` was 7.65%. With `CCNC(=O)NC(=O)CSc1nnc(-c2c[nH]c3ccccc23)o1`, the “hERG current change (%, negative = inhibition) at 10uM” value turned out to be 8.44%. The value for `CCCCN1C(=O)C(NC(=O)c2cccnc2)(C(F)(F)F)C2=C1CC(C)(C)CC2=O` (stereo not drawn) was 1.83%. Turning to `N#Cc1c(Nc2ccccc2)sc(C(=O)c2ccccc2)c1N`, the “hERG current change (%, negative = inhibition) at 10uM” value is -7.02%.
